# Results taken from the supplement of paper PMC6002552.
# This is one part of the list. Single values are uncertain, as repeats are few or missing.
# Tested on: Bacillus subtilis 168 spores
# Test: spore germination/outgrowth inhibition class (0 mild or none, 1 inhibitory, 3 highly inhibitory, 4 no outgrowth, 5 no germination) (ordinal class code); higher = stronger inhibition of spore germination/outgrowth
# Conditions: 100 µg/ml; pH 7.4; 8 h
# Protocol: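 Heat-activated Bacillus subtilis 168 spores (OD595 0.2) in TSB with AGFK germinants, buffered with 80 mM MOPS at pH 7.4, were exposed to 100 µg/ml compound (Pyxis Discovery library, catalogue IDs). OD595 was followed for 8 h at 37 °C in a plate reader. Each compound was assigned an ordinal inhibition class: 0 mild/no inhibition (reached 2x initial OD within 2-3 h), 1 inhibitory (3-6 h), 3 highly inhibitory (6-8 h), 4 no outgrowth within 8 h, 5 no germination (no OD decline).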
row,SMILES,spore germination/outgrowth inhibition class
1,Cc1cccc(Nc2nc3nonc3nc2Nc2ccccc2C)c1,active: 4
2,c1ccc2[nH]c(-c3cnco3)cc2c1,inactive: 1
3,Cc1csc(NC(=O)Nc2ccccc2)n1,inactive: 0
4,CCc1[nH]nc2c1C(c1cccc(Cl)c1)C(C#N)=C(N)O2 (stereo not drawn),inactive: 0
5,c1ccc(Nc2nnns2)cc1,inactive: 0
6,c1ccc2c3c([nH]c2c1)-c1[nH]ncc1CC3,active: 4
7,Cn1nc(N)c2c(-c3ccccc3)c(C#N)c(N)nc21,inactive: 0
8,COC(=O)c1nc(NC(C)=O)n[nH]1,inactive: 0
9,CCCC(=O)N1CCc2cc(-c3nc(N)sc3C)ccc21,inactive: 0
10,CCC(=O)Cc1nnc2c(Nc3ccc(Cl)cc3)nc3nonc3n12,active: 4
11,NC(N)=Nc1nc(-c2ccc3c(c2)CC(=O)N3)cs1,inactive: 0
12,N#CC1=C(N)Oc2n[nH]c(C(F)(F)F)c2C1c1cccc(Cl)c1Cl (stereo not drawn),active: 5
13,N#Cc1c(NC(=O)C2CCCO2)sc2c1CCCCC2 (stereo not drawn),inactive: 0
14,O=C1CC(=O)c2ccccc2-c2ccccc21,active: 4
15,Cc1ccc(C)c(-c2c(C)ccc(C)c2C(=O)O)c1C(=O)O,inactive: 0
16,NC(=O)c1c(NC(=O)c2cccs2)sc2c1CCC2,inactive: 0
17,c1ccc(-c2cnc3nonc3n2)cc1,active: 4
18,O=C(Nc1ncn[nH]1)C1CCCO1 (stereo not drawn),inactive: 0
